Experimental data from the supplement of paper PMC3334620.
Over roughly 33,000 sequences, “E-score (-0.5 to 0.5)” has its median near -0.011; the highest 2% begin near 0.28. The list shows a part of the results.

target: T1, Gcr1 (UniProt P07261); assay: PBM E-score (8-mer binding enrichment) (E-score (-0.5 to 0.5)); higher = stronger / more preferred TF binding; most listed sequences are background and not binding sites; settings: protein concentration: 100 nM; construct: GST-full length
T1 sequence: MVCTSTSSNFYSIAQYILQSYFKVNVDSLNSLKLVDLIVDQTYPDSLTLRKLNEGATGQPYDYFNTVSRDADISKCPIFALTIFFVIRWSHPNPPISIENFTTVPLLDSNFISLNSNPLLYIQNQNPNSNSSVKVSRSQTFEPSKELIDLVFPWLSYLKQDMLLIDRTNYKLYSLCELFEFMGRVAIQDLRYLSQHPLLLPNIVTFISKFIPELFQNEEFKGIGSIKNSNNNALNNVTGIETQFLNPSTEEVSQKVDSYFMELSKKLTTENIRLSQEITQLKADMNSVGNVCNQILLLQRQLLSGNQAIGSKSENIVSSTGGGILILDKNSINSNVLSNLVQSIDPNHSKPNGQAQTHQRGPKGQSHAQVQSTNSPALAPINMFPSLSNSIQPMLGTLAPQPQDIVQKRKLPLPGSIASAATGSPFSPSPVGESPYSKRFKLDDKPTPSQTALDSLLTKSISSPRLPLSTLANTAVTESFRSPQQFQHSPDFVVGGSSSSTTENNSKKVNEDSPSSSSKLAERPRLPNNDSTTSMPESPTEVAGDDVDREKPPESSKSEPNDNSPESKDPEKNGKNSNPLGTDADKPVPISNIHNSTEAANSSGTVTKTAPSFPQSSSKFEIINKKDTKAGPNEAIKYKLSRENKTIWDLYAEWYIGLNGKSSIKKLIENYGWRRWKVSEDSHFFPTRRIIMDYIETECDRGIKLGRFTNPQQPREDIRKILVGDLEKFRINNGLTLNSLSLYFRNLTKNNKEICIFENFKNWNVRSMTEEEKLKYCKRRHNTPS
In short: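 Universal all-10-mer Agilent arrays, double-stranded by primer extension on fresh or once-stripped slides, were probed with about 100-200 nM GST-tagged yeast transcription factors made by PURExpress. Fluorescent anti-GST detected bound protein, and masliner normalised the scans. E-scores from the Universal PBM Analysis Suite were given to each ungapped eight-base word pooled with its reverse complement.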

First: CGGCAGGA
Second: CGGTGGCC
The “PBM E-score” value of the first is higher: -0.0947 for the first, -0.139 for the second.

Compared with ACGCTAGT, TAGATGAA is lower in “PBM E-score” value: 0.0822 for the first, -0.0625 for the second.

Going from CCCGCAAC to CTACTGCC, the “PBM E-score” value falls from 0.231 to -0.0769.

First: GCCCTTGA
Second: CGGAAGAA
The “PBM E-score” value of the first is higher: -0.0468 for the first, -0.0973 for the second.

First: CAACCTCA
Second: CAGCATAC
The “PBM E-score” value of the first is higher: -0.0311 for the first, -0.0944 for the second.

Compared with CCCCACTA, AGACGCGG is higher in “PBM E-score” value: 0.196 for the first, 0.238 for the second.

First: GCCACTTA
Second: ATCTATTG
The “PBM E-score” value of the first is higher: 0.184 for the first, 0.159 for the second.

Going from TACGACTA to GGGAATGA, the “PBM E-score” value rises from -0.0181 to 0.147.

First: GAGGTGCC
Second: AGAGATCT
The “PBM E-score” value of the first is higher: 0.281 for the first, -0.271 for the second.

First: AGGCACAA
Second: GAACCGTC
The “PBM E-score” value of the first is lower: -0.0212 for the first, 0.0271 for the second.

Compared with ACGGGCTC, GAGTTACC is lower in “PBM E-score” value: -0.153 for the first, -0.264 for the second.

Going from ACGGTTCA to CAGAGCTC, the “PBM E-score” value rises from -0.279 to -0.158.

First: GCGCGACA
Second: GCACCAAC
The “PBM E-score” value of the first is lower: 0.175 for the first, 0.197 for the second.

Compared with ATATGCTC, ATACGCAT is higher in “PBM E-score” value: -0.175 for the first, 0.23 for the second.

Going from TTCTGCAA to AAGATAAG, the “PBM E-score” value rises from 0.134 to 0.177.

Compared with ACCTAGTA, ACCTATCA is lower in “PBM E-score” value: -0.0412 for the first, -0.113 for the second.

First: CTATACGA
Second: CACGGCGG
The “PBM E-score” value of the first is higher: -0.0137 for the first, -0.149 for the second.

First: AATCATCT
Second: AGATCGTG
The “PBM E-score” value of the first is lower: -0.251 for the first, -0.0376 for the second.

First: AAGGCCCA
Second: CACGCATG
The “PBM E-score” value of the first is lower: -0.0877 for the first, -0.0499 for the second.

First: CCTGGTCA
Second: CGACTGGA
The “PBM E-score” value of the first is lower: 0.0605 for the first, 0.316 for the second.

First: GGTCCCAA
Second: AACCGAAA
The “PBM E-score” value of the first is higher: 0.066 for the first, 0.00892 for the second.

Compared with AAGACTTA, AGTCTGCC is higher in “PBM E-score” value: -0.272 for the first, -0.193 for the second.

Compared with AGACCTGC, CATACCGA is higher in “PBM E-score” value: -0.135 for the first, 0.0765 for the second.

Going from CCCCCAGC to ATGTGACC, the “PBM E-score” value rises from -0.271 to 0.216.

Compared with ATGAGAGA, AACCAAGT is higher in “PBM E-score” value: -0.136 for the first, 0.144 for the second.

Going from CTGAGTCA to AGACGATA, the “PBM E-score” value falls from 0.0975 to 0.0287.

Going from AATGCGGA to GGGCTGTA, the “PBM E-score” value falls from -0.0747 to -0.176.

First: TACCGGTA
Second: TCTGCCAA
The “PBM E-score” value of the first is higher: 0.266 for the first, 0.00421 for the second.

Compared with GGCCTTAA, AAGCAGGA is higher in “PBM E-score” value: -0.223 for the first, 0.0293 for the second.

Going from CCATATGG to TAGGTTCA, the “PBM E-score” value falls from 0.0577 to -0.119.

Going from CCCCTTGA to ATAGGAGA, the “PBM E-score” value rises from -0.115 to -0.0471.

Going from GGCCGTAA to AGCTAGAT, the “PBM E-score” value rises from 0.0853 to 0.127.

First: GCCATACA
Second: GATGATCA
The “PBM E-score” value of the first is higher: 0.0945 for the first, -0.105 for the second.

Going from ACTAATCG to GAGCACGA, the “PBM E-score” value rises from -0.157 to 0.0594.

Going from CGCGCTAG to TACTTCCA, the “PBM E-score” value rises from -0.0588 to 0.121.

Compared with ATCCACAC, AAGTGTCG is higher in “PBM E-score” value: -0.0771 for the first, -0.041 for the second.

Going from CGTCGGTC to AATGTAAA, the “PBM E-score” value rises from -0.069 to 0.106.

First: GCGGGGAC
Second: GTGGTTAA
The “PBM E-score” value of the first is lower: -0.126 for the first, -0.0424 for the second.

Going from AGGTATAA to CGTCGTGC, the “PBM E-score” value falls from -0.0419 to -0.103.

Compared with TGCCTACA, ACTAGGGG is higher in “PBM E-score” value: 0.0247 for the first, 0.0945 for the second.

First: CGGCATGC
Second: AGAATGCA
The “PBM E-score” value of the first is lower: -0.147 for the first, 0.115 for the second.

Going from GCAGACAC to ATCAAATG, the “PBM E-score” value falls from 0.0309 to -0.00895.

Compared with CCGGAATA, GTTAAGCA is lower in “PBM E-score” value: 0.0263 for the first, 0.0245 for the second.

First: GTTAGCTA
Second: AAAGTCAA
The “PBM E-score” value of the first is higher: -0.0466 for the first, -0.211 for the second.

First: ACGGCCAG
Second: AGTTAAAC
The “PBM E-score” value of the first is lower: -0.0766 for the first, 0.0443 for the second.

First: AACCATGC
Second: CTGCCAAC
The “PBM E-score” value of the first is higher: 0.103 for the first, 0.0573 for the second.

Compared with ACTTAGGC, ACCCCGTC is lower in “PBM E-score” value: 0.0458 for the first, 0.0174 for the second.

Compared with TAAATGAA, GCTCTGAC is lower in “PBM E-score” value: -0.135 for the first, -0.157 for the second.

First: ACCACATG
Second: CCGGAACA
The “PBM E-score” value of the first is higher: 0.0716 for the first, -0.0359 for the second.

Going from GGCCCAAC to CCTTATTC, the “PBM E-score” value rises from -0.128 to -0.0501.

Compared with ACACCGCC, ACAACGTA is lower in “PBM E-score” value: -0.0336 for the first, -0.042 for the second.

Going from AGAACGGG to CTGAAAAA, the “PBM E-score” value rises from -0.0637 to 0.0942.

Compared with CACTCTAG, CCCGGAGG is lower in “PBM E-score” value: 0.0574 for the first, 0.0461 for the second.

Going from GATCACAC to CGGTTCCA, the “PBM E-score” value rises from -0.179 to 0.189.

Compared with GCTGTCAC, AGGGTTTC is lower in “PBM E-score” value: 0.00808 for the first, -0.043 for the second.

Compared with CGATGCAC, AACAAGAT is higher in “PBM E-score” value: -0.239 for the first, 0.0921 for the second.

First: CAACCGCG
Second: AGTCCAGG
The “PBM E-score” value of the first is higher: -0.152 for the first, -0.161 for the second.

First: GCAGGCAA
Second: CTATCTAA
The “PBM E-score” value of the first is lower: -0.0468 for the first, 0.0445 for the second.

Compared with AGGGTTAC, CGGCCCCG is higher in “PBM E-score” value: -0.155 for the first, 0.0571 for the second.

Compared with AAATCAAT, CCCATTGC is lower in “PBM E-score” value: -0.0863 for the first, -0.1 for the second.

Going from GCGGACGC to CAAACATC, the “PBM E-score” value falls from 0.151 to -0.0208.

Compared with AACGCGCC, AAATAGTT is lower in “PBM E-score” value: 0.201 for the first, 0.138 for the second.

Going from TATCAGGA to ACAGGTAC, the “PBM E-score” value falls from 0.131 to -0.137.

Going from ACCTACAA to ATGGTAAG, the “PBM E-score” value falls from 0.142 to -0.102.

First: GAAATTCC
Second: CTCGACTC
The “PBM E-score” value of the first is higher: 0.127 for the first, -0.191 for the second.

Going from GCGCTCAA to CACCCTAA, the “PBM E-score” value rises from -0.0767 to 0.055.

Compared with GTCTGTAA, TCACTGGA is higher in “PBM E-score” value: -0.0579 for the first, 0.219 for the second.

Going from GAACGATC to CCTCCCGA, the “PBM E-score” value falls from 0.0394 to 0.0174.

Compared with CTACCCGC, CGCCTCCA is higher in “PBM E-score” value: 0.104 for the first, 0.134 for the second.

Compared with ATCACTGC, ACAGTTCA is higher in “PBM E-score” value: -0.0935 for the first, -0.0755 for the second.

Going from CATTCTGA to GGATGGAC, the “PBM E-score” value rises from -0.00147 to 0.0522.

Compared with CTTAGGGC, TCCAACGA is lower in “PBM E-score” value: 0.146 for the first, 0.00498 for the second.

Going from ACCGAAAC to CTAGATTA, the “PBM E-score” value falls from 0.0484 to -0.0428.

Going from CAGTACGA to ATGGTAGG, the “PBM E-score” value rises from -0.144 to -0.13.

First: GCGCGAAC
Second: CAAAGTCG
The “PBM E-score” value of the first is higher: 0.0242 for the first, -0.154 for the second.

Going from AGTGGTAG to ATTGTGCC, the “PBM E-score” value falls from 0.318 to -0.28.

Compared with CGTTTTAC, AGTAGGGC is higher in “PBM E-score” value: -0.101 for the first, 0.0894 for the second.

Compared with CCACCAGG, ACCCTTTG is lower in “PBM E-score” value: -0.0484 for the first, -0.225 for the second.

First: TAGTTCGA
Second: CTACGCCC
The “PBM E-score” value of the first is higher: 0.0984 for the first, -0.00525 for the second.

First: CTATAAAC
Second: AACGGGAT
The “PBM E-score” value of the first is lower: 0.0777 for the first, 0.202 for the second.

First: AGGGCATA
Second: CGTGTTAC
The “PBM E-score” value of the first is higher: -0.118 for the first, -0.148 for the second.

Compared with GTGTACAC, TACAGGCA is higher in “PBM E-score” value: -0.117 for the first, 0.195 for the second.

First: GTCCTAAA
Second: ACCGGGGG
The “PBM E-score” value of the first is higher: 0.21 for the first, -0.183 for the second.

Going from ACGTCGCC to ATTAAATC, the “PBM E-score” value rises from 0.11 to 0.203.

Compared with GTATAATA, ATTGATTA is lower in “PBM E-score” value: 0.216 for the first, 0.198 for the second.

Going from GTGAGTAA to CGATAAAG, the “PBM E-score” value rises from -0.113 to -0.0204.
